In the supplement of paper PMC9446081:
Among all 39,000 compounds or so, about 220 (0.56%) showed activity. Some of the results follow.
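Note: static incubation at 37 °C against the wild-type strain, values averaged over two biological replicates.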

The molecules below were run on Escherichia coli K-12 BW25113 (assay: relative growth (OD600 normalised to plate interquartile mean) (fraction); higher = less growth inhibition, active = 0.2 or less). Conditions: 50 µM; LB; incubation time: overnight (16-24 h).
`C[C@@H]1CN([C@@H](C)CO)C(=O)Cc2cc(NC(=O)CCN3CCOCC3)ccc2O[C@H]1CN(C)C(=O)Nc1ccc2c(c1)OCO2` was tested, and the relative growth was inactive: 1.03. With `COCCOC(=O)C1=C(C)NC(C)=C(C(=O)OCC=Cc2ccccc2)C1c1cccc([N+](=O)[O-])c1` (stereo not drawn) the relative growth was inactive: 1.01. With `c1ccc(Nc2nc(-c3ccccc3)nc3ccccc23)cc1` the relative growth was inactive: 0.926. In the case of `O=C(CS)NCCCCCCNC(=O)[C@@H]1C[C@@H]2C(=O)N3CCC[C@H]3C(=O)N2[C@@H]1c1cccc(OCCO)c1`, the relative growth is reported as inactive: 1.01. With `C[C@@H]1CN([C@H](C)CO)C(=O)c2cc(NC(=O)Nc3cccc4ccccc34)ccc2O[C@@H](C)CCCCO[C@@H]1CN(C)S(=O)(=O)c1cn(C)cn1` the relative growth was inactive: 1.03. With `Nc1ccccc1CO` the relative growth was inactive: 1.01. In the case of `Cc1nn(C)c(C)c1CN`, the relative growth is reported as inactive: 1. In the case of `C/C=C/c1ccc([C@H]2[C@@H](CO)N(S(=O)(=O)CC)C23CN(C(=O)CN(C)C)C3)cc1`, the relative growth is reported as inactive: 1. For `O=C(C[C@H]1CC[C@@H](NC(=O)CN2CCOCC2)[C@@H](CO)O1)NCc1cccc(F)c1`, the relative growth was inactive: 1. `Cc1noc(C)c1NC(=O)N(C)C[C@H]1Oc2c(NC(=O)C3CCOCC3)cccc2C(=O)N([C@H](C)CO)C[C@H]1C` was tested, and the relative growth was inactive: 0.996. `C[C@H]1CN([C@@H](C)CO)C(=O)c2cc(NC(=O)Cc3ccccc3)ccc2O[C@H]1CN(C)C(=O)Nc1cccc2ccccc12` was tested, and the relative growth was inactive: 1.02. In the case of `Cc1noc(C)c1S(=O)(=O)Nc1ccc2c(c1)C(=O)N([C@H](C)CO)C[C@H](C)[C@@H](CN(C)S(=O)(=O)c1ccccc1)O2`, the relative growth is reported as inactive: 0.968. With `C[C@@H]1CN([C@H](C)CO)C(=O)c2cc(NS(=O)(=O)c3ccc(F)cc3)ccc2O[C@@H](C)CCCCO[C@@H]1CN(C)C(=O)c1ccccc1` the relative growth was inactive: 1. In the case of `Cc1nnnn1CC(=O)Nc1ccc(F)cc1`, the relative growth is reported as inactive: 0.999. `COc1ccc(C#Cc2ccc([C@@H]3[C@@H](CO)N4CCCCN(S(=O)(=O)c5cn(C)cn5)C[C@@H]34)cc2)cc1` was tested, and the relative growth was inactive: 1.01. `C[C@@H]1CN([C@@H](C)CO)S(=O)(=O)c2ccc(/C=C/c3ccccc3)cc2O[C@@H]1CN(C)C(=O)Nc1cc(F)ccc1F` was tested, and the relative growth was inactive: 1.02. For `Nc1nnc2n1CCS2`, the relative growth was inactive: 0.986. In the case of `COc1ccc(S(=O)(=O)N(C)C[C@H]2Oc3ccc(NC(=O)c4ccncc4)cc3C(=O)N([C@H](C)CO)C[C@@H]2C)cc1`, the relative growth is reported as inactive: 0.966. For `C[C@@H]1CN([C@H](C)CO)C(=O)Cc2cc(NC(=O)CCC(F)(F)F)ccc2O[C@@H]1CN(C)S(C)(=O)=O`, the relative growth was inactive: 0.979. In the case of `C[C@H]1CN([C@@H](C)CO)C(=O)c2ccccc2-c2ccccc2CO[C@H]1CN(C)C(=O)Nc1cccc(Cl)c1Cl`, the relative growth is reported as inactive: 0.998. For `CO[C@H]1CN(C)C(=O)c2cc(NC(=O)Nc3cccc(Cl)c3)ccc2OC[C@H](C)N(C(=O)Nc2c(C)noc2C)C[C@@H]1C`, the relative growth was inactive: 0.967. With `CO[C@H](CN(C)C(=O)c1ccc2c(c1)OCO2)[C@@H](C)CN([C@H](C)CO)S(=O)(=O)c1ccc(C)cc1` the relative growth was inactive: 0.979. For `N[C@@H](CC(=O)O)C(=O)O`, the relative growth was inactive: 1.02. In the case of `C[C@@H]1CN([C@@H](C)CO)C(=O)c2cccc(NS(=O)(=O)c3cn(C)cn3)c2O[C@@H]1CN(C)CC1CCCCC1`, the relative growth is reported as inactive: 1.02. `C[C@@H]1CCCCO[C@@H](CN(C)C(=O)Nc2ccc(C(F)(F)F)cc2)[C@H](C)CN([C@@H](C)CO)C(=O)c2cc(NS(=O)(=O)c3cn(C)cn3)ccc2O1` was tested, and the relative growth was inactive: 0.821. In the case of `C[C@@H]1CN([C@@H](C)CO)C(=O)c2cc(NS(=O)(=O)c3cn(C)cn3)ccc2O[C@@H](C)CCCCO[C@@H]1CN(C)S(=O)(=O)c1ccc(F)cc1`, the relative growth is reported as inactive: 0.996. `C[C@@H]1CN([C@H](C)CO)S(=O)(=O)c2ccc(Br)cc2O[C@H]1CN(C)S(=O)(=O)c1ccc(F)cc1` was tested, and the relative growth was inactive: 1.03. In the case of `O=c1[nH]cc(S(=O)(=O)N2CCN(c3ccccc3F)CC2)c(=O)[nH]1`, the relative growth is reported as inactive: 0.972. For `CN1CCN(C(=O)C[C@@H]2CC[C@@H]3[C@H](COC[C@@H](O)CN3C(=O)C3CCOCC3)O2)CC1`, the relative growth was inactive: 1.01. In the case of `CO[C@@H]1CN(C)C(=O)c2cc(NC(=O)NC(C)C)ccc2OC[C@@H](C)N(Cc2ccc(-c3ccccn3)cc2)C[C@@H]1C`, the relative growth is reported as inactive: 1.01. With `NCC1CCSCC1` the relative growth was inactive: 0.988. For `C[C@H](O)C#Cc1ccc2c(c1)O[C@@H](CN(C)C(=O)Nc1ccccc1)[C@H](C)CN([C@H](C)CO)S2(=O)=O`, the relative growth was inactive: 1.02. In the case of `C[C@@H]1CN([C@H](C)CO)C(=O)c2cc(NC(=O)CCC(F)(F)F)ccc2O[C@@H]1CN(C)Cc1ccc(-c2ccccc2)cc1`, the relative growth is reported as inactive: 0.877. `COc1ccccc1S(=O)(=O)N(C)C[C@@H]1OCc2cnnn2CCCC(=O)N([C@H](C)CO)C[C@H]1C` was tested, and the relative growth was inactive: 0.971. For `NS(=O)(=O)c1ccc(Cl)cc1[N+](=O)[O-]`, the relative growth was inactive: 0.88. With `CSCC[C@@H](N)C(=O)O` the relative growth was inactive: 1.02. With `Cc1ncc([N+](=O)[O-])n1C` the relative growth was inactive: 1.09. For `C[C@@H]1CN([C@@H](C)CO)C(=O)c2cc(NC(=O)Nc3ccc4c(c3)OCO4)ccc2O[C@H]1CN(C)Cc1ccc(C(F)(F)F)cc1`, the relative growth was inactive: 0.99. `Nc1ncccc1-c1nc2ccc(-c3ccccc3)nc2n1-c1ccc(C2(N)CCC2)cc1` was tested, and the relative growth was inactive: 0.97. With `C[C@@H]1CCCCO[C@H](CN(C)C(=O)Nc2cccc3ccccc23)[C@H](C)CN([C@H](C)CO)C(=O)c2cc(NC(=O)Cc3ccccc3)ccc2O1` the relative growth was inactive: 1.01. With `C[C@@H]1CN([C@@H](C)CO)S(=O)(=O)c2ccc(C#Cc3cccc(F)c3)cc2O[C@@H]1CN(C)S(=O)(=O)c1cn(C)cn1` the relative growth was inactive: 1.01. With `C[C@@H]1CN([C@@H](C)CO)C(=O)c2cc(NS(=O)(=O)c3cn(C)cn3)ccc2O[C@@H]1CN(C)S(=O)(=O)c1ccc(F)cc1` the relative growth was inactive: 1. `C[C@@H]1CN([C@H](C)CO)S(=O)(=O)c2ccc(C#Cc3ccncc3)cc2O[C@H]1CN(C)C(=O)C1CCC1` was tested, and the relative growth was inactive: 0.989. In the case of `Cc1ccc(S(=O)(=O)Nc2cccc3c2O[C@H](CN(C)S(=O)(=O)c2cn(C)cn2)[C@@H](C)CN([C@@H](C)CO)C3=O)cc1`, the relative growth is reported as inactive: 0.985. For `C[C@H]1CN([C@@H](C)CO)C(=O)c2cc(NC(=O)CCN3CCOCC3)ccc2O[C@H]1CN(C)S(=O)(=O)c1ccc(F)cc1`, the relative growth was inactive: 0.983. `C[C@H](CO)N1C[C@H](C)[C@@H](CN(C)Cc2ccc(-c3ccccc3)cc2)Oc2c(NC(=O)c3nc4ccccc4s3)cccc2C1=O` was tested, and the relative growth was inactive: 1.04. `O=c1cc[nH]cc1` was tested, and the relative growth was inactive: 1.01. For `C[C@@H]1CN([C@@H](C)CO)C(=O)Cc2cc(NC(=O)Nc3cccc4ccccc34)ccc2O[C@@H]1CN(C)C(=O)Nc1ccc(C(F)(F)F)cc1`, the relative growth was inactive: 0.991. `COc1ccc(NC(=O)Nc2ccc3c(c2)C(=O)N([C@H](C)CO)C[C@H](C)[C@H](CN(C)S(=O)(=O)c2ccc(OC)cc2)OCCCC[C@@H](C)O3)cc1` was tested, and the relative growth was inactive: 1.01. For `Cc1noc(C)c1NC(=O)N(C)C[C@@H]1Oc2ccc(NS(C)(=O)=O)cc2C(=O)N([C@@H](C)CO)C[C@H]1C`, the relative growth was inactive: 1. `C[C@H](CO)N1C[C@H](C)[C@@H](CN(C)S(=O)(=O)c2cn(C)cn2)OCc2cn(nn2)CCCC1=O` was tested, and the relative growth was inactive: 0.992. `C[C@H]1CN([C@@H](C)CO)C(=O)c2cc(NS(=O)(=O)c3cn(C)cn3)ccc2O[C@H]1CN(C)S(C)(=O)=O` was tested, and the relative growth was inactive: 1.02. With `C[C@H](CO)N1C[C@H](C)[C@@H](CN(C)C(=O)c2ccc3c(c2)OCO3)Oc2ncc(C#Cc3ccccc3F)cc2C1=O` the relative growth was inactive: 1.02. `COc1ccc(NC(=O)Nc2cccc3c2O[C@H](CN(C)Cc2ccc(C(=O)Nc4ccccc4N)cc2)[C@@H](C)CN([C@@H](C)CO)C3=O)cc1` was tested, and the relative growth was inactive: 1.04. `O=C(C[C@@H]1CC[C@H]2[C@@H](COC[C@@H](O)CN2S(=O)(=O)c2ccc(Cl)cc2)O1)NCCN1CCCC1` was tested, and the relative growth was inactive: 0.995. With `C[C@@H]1CN([C@H](C)CO)C(=O)c2cc(NC(=O)c3ccncc3)ccc2O[C@@H](C)CCCCO[C@H]1CN(C)C(=O)Nc1ccc(F)cc1` the relative growth was inactive: 1. In the case of `C[C@@H]1CN([C@@H](C)CO)C(=O)c2cc(NC(=O)c3ccncc3)ccc2O[C@H]1CN(C)Cc1ccc(Oc2ccccc2)cc1`, the relative growth is reported as inactive: 0.994. In the case of `Cc1cc(C(=O)Nc2cccc3c2O[C@@H](CN(C)S(=O)(=O)c2ccc(F)cc2)[C@H](C)CN([C@@H](C)CO)C3=O)n(C)n1`, the relative growth is reported as inactive: 1.01. `COC(=O)C1=CO[C@@H](O[C@H]2O[C@@H](CO)[C@@H](O)[C@@H](O)[C@@H]2O)[C@@H]2C(CO)=C[C@H](O)[C@H]12` was tested, and the relative growth was inactive: 1.02. `C[C@@H]1CCCCO[C@H](CN(C)S(=O)(=O)c2ccc(Cl)cc2)[C@@H](C)CN([C@H](C)CO)C(=O)c2cc(NC(=O)Nc3ccc(F)cc3)ccc2O1` was tested, and the relative growth was inactive: 1. With `C[C@@H]1CN([C@@H](C)CO)S(=O)(=O)c2ccc(C#Cc3cccc(F)c3)cc2O[C@@H]1CN(C)C(=O)CN1CCOCC1` the relative growth was inactive: 1.01. In the case of `Cc1noc(C)c1S(=O)(=O)N(C)C[C@H]1Oc2ccc(NS(=O)(=O)c3ccccc3)cc2C(=O)N([C@H](C)CO)C[C@H]1C`, the relative growth is reported as inactive: 1.01. `C[C@H]1CN([C@@H](C)CO)C(=O)Cc2cc(NC(=O)Cn3cnnn3)ccc2O[C@H]1CN(C)Cc1ccc(Oc2ccccc2)cc1` was tested, and the relative growth was inactive: 1.01.
